± gives the standard deviation of the averaged measurements. Some of the results follow.
test system: PfAP2-I AP2 domain 3 (GST-tagged); test: gcPBM binding intensity (ln(normalized median fluorescence intensity)); higher = stronger DNA binding
Procedure, shortened: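 An Agilent 4 × 180k array carrying primer-extended double-stranded 36-bp intergenic genomic probes and negative controls received GST-tagged P. falciparum DNA-binding domains expressed in E. coli, about 25 μg on average, for 1 h. The binding buffer contained 1× PBS, 1% milk, 0.2 mg/ml BSA, 0.5% salmon testes DNA and 0.03% Triton X-100. Binding intensity is the top Masliner-normalised natural-log median intensity across replicate spots of either probe orientation, read after Alexa488 anti-GST antibody staining and a 488 nm scan.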

Sequence | gcPBM binding intensity (ln)
ATAAATAAAAACACAAAACAAAACAAAACAAAACAA [CACACA_negctrl_site1257] | 7.86 ± 0.98
ATATATATTGTACTAGTGCATATATATACATATATT | 9.87 ± 0.071
TTTCATCTATATGAAACACACAAAGGAAAAAAAATT [CACACA_site7869] | 7.9 ± 0.69
TAATAAATGGCTAGTTGTACAGAAATATAAATATTA [XGTACX_site4579] | 7.63 ± 0.4
AGATTCAAAAATAAAACATGCAAAAATAAAACGTGC [TGCATGCA_site501] | 8.19 ± 0.7
ATATATATAATATAATGTACATATATTTTATTTTTA [XGTACX_site3819] | 8.21 ± 0.47
ACGTATTAGATAAATACACACACAAGCATATATTTT [CACACA_site9135] | 7.72 ± 0.52
TAATGTATTATATTTAGTACATATAAAAATAATTTT [XGTACX_site6886] | 7.51 ± 0.32
ATATATTAATTTAATTGTACGAATAAAAAAAAAAAA [XGTACX_site223] | 8.19 ± 0.62
TATATACATTTATGTACACACACATATATGTATATT [CACACA_site8971] | 7.73 ± 0.45
AAAGCACCCAAGAATACACACAAATATTATAAAAAA [CACACA_site111] | 8.07 ± 0.71
AAAAGGTATGTTATACATAGATATGCACATATATGT [TGCATGCA_negctrl_site96] | 8.96 ± 0.45
ATTAATATAAAAAGGTAAATGGATGTAATATATATA [XGTACX_negctrl_site2] | 8.21 ± 0.67
AAAATTGTTATTTTATGTACTTATATTTATTTATTT [XGTACX_site3478] | 7.6 ± 0.44
TTTTTTTTGTGTATTTGTACATAATATATATATATA [XGTACX_site7092] | 9.15 ± 0.18
TCGTAATTTTTTTTTATATATTAGGAATTTATAAAA [XGTACX_negctrl_site409] | 7.43 ± 0.39
TAATACCATTGTCATGCATGCACATTATTACTCTAA [TGCATGCA_site160] | 8.26 ± 0.76
ATATTATATTTCTTTTGTACATATTATATAATATAT [XGTACX_site7198] | 8.1 ± 0.56
TTTTTTTTTAAATAATGTACTTTTCATTATTTAGAT [XGTACX_site1706] | 7.81 ± 0.37
AAAGAAAAAAATAATTGTACATTTATATTTAATTTA [XGTACX_site8003] | 7.36 ± 0.31
TTTTTATTTATTAATACACACACACCCACCCACAAA [CACACA_site7965] | 9.18 ± 0.39
CACATACACATACAAACACACATTAGATATAAATAT [CACACA_site6854] | 8.01 ± 0.13
AAAAAAAATTAATAGGGTACATGAAAAGTGGAATAT [XGTACX_site618] | 8.45 ± 0.54
ATAGAAGAAATATGCACACATACATTGAAATGTTTT [CACACA_site321] | 8.81 ± 0.092
AAAAAAAAATTAAAAACACACATATAAATAAATATA [CACACA_site6845] | 7.58 ± 0.52
